Results reported in the supplement of paper PMC4604168 (melanoma cell lines).
The list shows a part of the results. Many values rest on one well or one pass, so single values are uncertain.

The molecules below were run on A2058 (assay: cell count relative to DMSO control; melanoma cells; higher = more viable cells). Details: library dose: standard library concentration; 72 h.
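Also: cells treated in 1,536-well plates, then fixed and DAPI-stained, with nuclei counted from automated high-throughput microscope images.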

**Q.** Which cell count does the source give for `Cn1c(=O)n(-c2ccc(C(C)(C)C#N)cc2)c2c3cc(-c4cnc5ccccc5c4)ccc3ncc21` + Cc1cc([N+](=O)[O-])ccc1NS(=O)(=O)c1cc(Cl)ccc1Cl [FH535] (first compound 0.02 µM, partner dose 5 µM) here?
**A.** Its cell count is 52.5%.

**Q.** `Cn1c(=O)n(-c2ccc(C(C)(C)C#N)cc2)c2c3cc(-c4cnc5ccccc5c4)ccc3ncc21` + O=c1cc(-c2cccc3c2Sc2ccccc2S3)oc(N2CCOCC2)c1 [KU55933] (first compound 0.02 µM, partner dose 5 µM) was tested. Which cell count did it give?
**A.** Its cell count is 77.8%.

**Q.** For `COc1ccc(C2=N[C@@H](c3ccc(Cl)cc3)[C@@H](c3ccc(Cl)cc3)N2C(=O)N2CCNC(=O)C2)c(OC(C)C)c1` [Nutlin-3] + COc1ccc(COc2ccc(Cc3cnc(N)nc3N)cc2OC)cc1 [GW2580] (first compound 0.5 µM, partner dose 5 µM), which cell count is on record?
**A.** Its cell count is 93.1%.

**Q.** Which cell count does the source give for `COc1ccc(C2=N[C@@H](c3ccc(Cl)cc3)[C@@H](c3ccc(Cl)cc3)N2C(=O)N2CCNC(=O)C2)c(OC(C)C)c1` [Nutlin-3] + O=C(O)[C@@H]1[O][Sb](=[O])([O][Sb]2(=[O])[O][C@H]([C@H](O)CO)[C@H](O)[C@H](C(=O)O)[O]2)[O][C@H]([C@H](O)CO)[C@@H]1O [stibogluconate] (first compound 0.5 µM, partner dose 10 µM) here?
**A.** Its cell count is 115%.

**Q.** `CC(C)C[C@H](NC(=O)[C@H](Cc1ccccc1)NC(=O)c1cnccn1)B(O)O` [Bortezomib] + COc1ccc(-c2ccc3c(N4CCOCC4)nc(N4C[C@@H](C)O[C@@H](C)C4)nc3n2)cc1CO [KU0063794] (first compound 0.005 µM, partner dose 0.1 µM) was tested. Which cell count did it give?
**A.** The cell count was 35.2%.

**Q.** For `Cn1c(=O)n(-c2ccc(C(C)(C)C#N)cc2)c2c3cc(-c4cnc5ccccc5c4)ccc3ncc21` + O=C1NC(=O)/C(=C/c2ccc(-c3ccc(F)cc3O)o2)S1 [AS252424] (first compound 0.02 µM, partner dose 5 µM), which cell count is on record?
**A.** The cell count was 73%.

**Q.** For `Cn1c(=O)n(-c2ccc(C(C)(C)C#N)cc2)c2c3cc(-c4cnc5ccccc5c4)ccc3ncc21` + CN(C)S(=O)(=O)c1ccc2c(c1)/C(=C/c1cc3c([nH]1)CCCC3)C(=O)N2 [SU6656] (first compound 0.02 µM, partner dose 2 µM), which cell count is on record?
**A.** The cell count was 74%.

**Q.** With `COc1ccc(C2=N[C@@H](c3ccc(Cl)cc3)[C@@H](c3ccc(Cl)cc3)N2C(=O)N2CCNC(=O)C2)c(OC(C)C)c1` [Nutlin-3] + Cn1cc(/C=C2\C(=O)Nc3cccnc32)c2ccccc21 [GW441756] (first compound 0.5 µM, partner dose 2 µM) as the molecule, how does the cell count read?
**A.** Its cell count is 96.4%.

**Q.** `Cc1cn(-c2cc(NC(=O)c3ccc(C)c(Nc4nccc(-c5cccnc5)n4)c3)cc(C(F)(F)F)c2)cn1` [nilotinib] + O=C(O)c1ccc(-c2c[nH]c3ncc(-c4ccccc4)cc23)cc1C1CCCC1 [GSK650394] (first compound 1 µM, partner dose 0.8 µM) was tested. Which cell count did it give?
**A.** The cell count was 91.4%.

**Q.** For `Cc1cn(-c2cc(NC(=O)c3ccc(C)c(Nc4nccc(-c5cccnc5)n4)c3)cc(C(F)(F)F)c2)cn1` [nilotinib] + NC(=O)c1ccc(N(C(N)=O)c2c(F)cccc2F)nc1-c1ccc(F)cc1F [VX702] (first compound 1 µM, partner dose 2 µM), which cell count is on record?
**A.** Its cell count is 91.4%.

What follows are molecules tested on A375 in the same assay as above. Details: library dose: standard library concentration; 72 h.

**Q.** How did the cell count turn out when `Cc1cc(Nc2cc(N3CCN(C)CC3)nc(/C=C/c3ccccc3)n2)n[nH]1` + N#Cc1c(O)c2c(-c3ccc(-c4ccccc4O)cc3)csc2[nH]c1=O [A769662] (first compound 0.2 µM, partner dose 10 µM) was run?
**A.** The cell count was 107%.

**Q.** `CC(C)C[C@H](NC(=O)[C@H](Cc1ccccc1)NC(=O)c1cnccn1)B(O)O` [Bortezomib] + O=S(=O)(c1ccccc1)N(CC(F)(F)F)c1ccc(C(O)(C(F)(F)F)C(F)(F)F)cc1 [T0901317] (first compound 0.005 µM, partner dose 7 µM) was tested. Which cell count did it give?
**A.** The cell count was 103%.

**Q.** Which cell count does the source give for `Cn1c(=O)n(-c2ccc(C(C)(C)C#N)cc2)c2c3cc(-c4cnc5ccccc5c4)ccc3ncc21` + CC(C)CCN1c2nc(Nc3cc(F)c(O)c(F)c3)ncc2N(C)C(=O)C1C [BID1870] (first compound 0.02 µM, partner dose 1 µM) here?
**A.** Its cell count is 73.3%.

**Q.** For `Cc1cn(-c2cc(NC(=O)c3ccc(C)c(Nc4nccc(-c5cccnc5)n4)c3)cc(C(F)(F)F)c2)cn1` [nilotinib] + Cn1cncc1[C@@](N)(c1ccc(Cl)cc1)c1ccc2c(c1)c(-c1cccc(Cl)c1)cc(=O)n2C [tipifarnib] (first compound 1 µM, partner dose 0.05 µM), which cell count is on record?
**A.** Its cell count is 116%.

**Q.** For `Cn1c(=O)n(-c2ccc(C(C)(C)C#N)cc2)c2c3cc(-c4cnc5ccccc5c4)ccc3ncc21` + COC(=O)c1sccc1S(=O)(=O)Nc1ccc(Nc2ccccc2)cc1OC [GSK0660] (first compound 0.02 µM, partner dose 5 µM), which cell count is on record?
**A.** The cell count was 91.8%.

**Q.** Which cell count does the source give for `CC(C)C[C@H](NC(=O)[C@H](Cc1ccccc1)NC(=O)c1cnccn1)B(O)O` [Bortezomib] + Oc1cc(-c2nc(-c3ccccc3)[nH]c2-c2ccncc2)ccc1Cl [L779450] (first compound 0.005 µM, partner dose 1 µM) here?
**A.** The cell count was 88.8%.

**Q.** How did the cell count turn out when `Cc1cn(-c2cc(NC(=O)c3ccc(C)c(Nc4nccc(-c5cccnc5)n4)c3)cc(C(F)(F)F)c2)cn1` [nilotinib] + C[C@@H]1CCN(C(=O)CC#N)C[C@@H]1N(C)c1ncnc2[nH]ccc12 [CP690550] (first compound 1 µM, partner dose 5 µM) was run?
**A.** Its cell count is 128%.

**Q.** `Cc1cn(-c2cc(NC(=O)c3ccc(C)c(Nc4nccc(-c5cccnc5)n4)c3)cc(C(F)(F)F)c2)cn1` [nilotinib] + CCN(CC)CCCCNc1ncc2cc(-c3cc(OC)cc(OC)c3)c(NC(=O)NC(C)(C)C)nc2n1 [PD173074] (first compound 1 µM, partner dose 0.5 µM) was tested. Which cell count did it give?
**A.** The cell count was 132%.

**Q.** With `COc1ccc(C2=N[C@@H](c3ccc(Cl)cc3)[C@@H](c3ccc(Cl)cc3)N2C(=O)N2CCNC(=O)C2)c(OC(C)C)c1` [Nutlin-3] + CC(=O)O[C@@]12CO[C@@H]1C[C@H](O)[C@@]1(C)C(=O)[C@H](O)C3=C(C)[C@@H](OC(=O)[C@H](O)[C@@H](NC(=O)OC(C)(C)C)c4ccccc4)C[C@@](O)([C@@H](OC(=O)c4ccccc4)[C@H]21)C3(C)C [Docetaxel] (first compound 0.5 µM, partner dose 0.0005 µM) as the molecule, how does the cell count read?
**A.** Its cell count is 76.7%.

**Q.** Which cell count does the source give for `CC(C)C[C@H](NC(=O)[C@H](Cc1ccccc1)NC(=O)c1cnccn1)B(O)O` [Bortezomib] + CCCCCCCCCCCC1=C(O)C(=O)C=C(O)C1=O [Embelin] (first compound 0.005 µM, partner dose 6 µM) here?
**A.** Its cell count is 88.2%.

**Q.** `Cn1c(=O)n(-c2ccc(C(C)(C)C#N)cc2)c2c3cc(-c4cnc5ccccc5c4)ccc3ncc21` + N#Cc1c(O)c2c(-c3ccc(-c4ccccc4O)cc3)csc2[nH]c1=O [A769662] (first compound 0.02 µM, partner dose 10 µM) was tested. Which cell count did it give?
**A.** Its cell count is 108%.

**Q.** With `Cc1cn(-c2cc(NC(=O)c3ccc(C)c(Nc4nccc(-c5cccnc5)n4)c3)cc(C(F)(F)F)c2)cn1` [nilotinib] + COc1ccc(-c2ccc3c(N4CCOCC4)nc(N4C[C@@H](C)O[C@@H](C)C4)nc3n2)cc1CO [KU0063794] (first compound 1 µM, partner dose 0.1 µM) as the molecule, how does the cell count read?
**A.** Its cell count is 114%.

**Q.** `Cc1cn(-c2cc(NC(=O)c3ccc(C)c(Nc4nccc(-c5cccnc5)n4)c3)cc(C(F)(F)F)c2)cn1` [nilotinib] + CCCS(=O)(=O)Nc1ccc(F)c(C(=O)c2c[nH]c3ncc(Cl)cc23)c1F [PLX4720] (first compound 1 µM, partner dose 0.4 µM) was tested. Which cell count did it give?
**A.** Its cell count is 120%.

**Q.** Which cell count does the source give for `COc1ccc(C2=N[C@@H](c3ccc(Cl)cc3)[C@@H](c3ccc(Cl)cc3)N2C(=O)N2CCNC(=O)C2)c(OC(C)C)c1` [Nutlin-3] + COc1ccc2c(c1)CCC1C2CCC2(C)C(NCCCCCCN3C(=O)C=CC3=O)CCC12 [U73122] (first compound 0.5 µM, partner dose 2 µM) here?
**A.** The cell count was 68.4%.

**Q.** Which cell count does the source give for `COc1ccc(C2=N[C@@H](c3ccc(Cl)cc3)[C@@H](c3ccc(Cl)cc3)N2C(=O)N2CCNC(=O)C2)c(OC(C)C)c1` [Nutlin-3] + O=C(Nc1ccccc1)c1cc([N+](=O)[O-])ccc1Cl [GW9662] (first compound 0.5 µM, partner dose 10 µM) here?
**A.** Its cell count is 115%.

**Q.** For `COc1ccc(C2=N[C@@H](c3ccc(Cl)cc3)[C@@H](c3ccc(Cl)cc3)N2C(=O)N2CCNC(=O)C2)c(OC(C)C)c1` [Nutlin-3] + CO[C@H]1C[C@@H]2CC[C@@H](C)[C@@](O)(O2)C(=O)C(=O)N2CCCC[C@H]2C(=O)O[C@H]([C@H](C)C[C@@H]2CC[C@@H](OCCO)[C@H](OC)C2)CC(=O)[C@H](C)/C=C(\C)[C@@H](O)[C@@H](OC)C(=O)[C@H](C)C[C@H](C)/C=C/C=C/C=C/1C [everolimus] (first compound 0.5 µM, partner dose 0.1 µM), which cell count is on record?
**A.** The cell count was 91.3%.

**Q.** For `Cc1cn(-c2cc(NC(=O)c3ccc(C)c(Nc4nccc(-c5cccnc5)n4)c3)cc(C(F)(F)F)c2)cn1` [nilotinib] + Cn1sc(=O)n(Cc2ccccc2)c1=O [TDZD-8] (first compound 1 µM, partner dose 2 µM), which cell count is on record?
**A.** The cell count was 114%.

**Q.** Which cell count does the source give for `Cn1c(=O)n(-c2ccc(C(C)(C)C#N)cc2)c2c3cc(-c4cnc5ccccc5c4)ccc3ncc21` + COc1cc(N2CCC(N3CCN(C)CC3)CC2)ccc1Nc1ncc(Cl)c(Nc2ccccc2S(=O)(=O)C(C)C)n1 [NVP-TAE684] (first compound 0.02 µM, partner dose 0.4 µM) here?
**A.** The cell count was 64%.
